Among all 150,000 compounds or so, about 540 (0.36%) showed an effect of 50% or more. The list shows a part of the results.
Each molecule was assayed on Plasmodium falciparum (assay: Primary screen in NF54 nanoGlo assay, in single point, at 2uM, 72h; a lower Z score goes with more inhibition). Settings: timepoint 72 hour.
Format: functional, Erythrocyte
In the case of `O=C(N[C@@H](Cc1ccccc1)C(=O)N1CCc2ccccc2C1)c1cccnc1`, the “% Inhibition” value is reported as -8% and the Z score is reported as 1. With `COCCNCCCOc1ccc(Br)cc1Cl` the “% Inhibition” value was -12% and the Z score was 1.67. With `COC(=O)C1CC(Oc2ccccc2F)CN1C(=O)c1cnccn1` (stereo unspecified) the “% Inhibition” value was -4% and the Z score was 0.68. For `CC(C)C1CN(Cc2cnc3ccnn3c2)C1`, the “% Inhibition” value was 2% and the Z score was -0.32. `CN(C)S(=O)(=O)c1ccc(C(=O)N2C3CCC2CC(n2cncn2)C3)cc1` (stereo unspecified) was tested, and the “% Inhibition” value was -9% and the Z score was 1.09. With `O=C(NCc1ccccc1OCC1CC1)c1c[nH]nc1C1CC1` the “% Inhibition” value was -2% and the Z score was 0.16. For `O=C(NC[C@H]1CCCO1)c1n[nH]c2c1CCCCCC2`, the “% Inhibition” value was 1% and the Z score was -0.09. With `CC(=O)N1CCC(C(=O)N2CC[C@@H]3OCc4cccc(c4)Oc4ccc(cc4)CCC(=O)N(CCCO)CC(=O)N[C@H]3C2)CC1` the “% Inhibition” value was -6% and the Z score was 1.21. With `CC(C)C(NCC(O)C(F)(F)F)c1ccccn1` (stereo unspecified) the “% Inhibition” value was -10% and the Z score was 1.78. With `C/C(=C\c1ccco1)CN1CC[C@H](CNC(=O)c2ccc[nH]2)C1` the “% Inhibition” value was -10% and the Z score was 1.92. In the case of `Cc1ncc(CN2CCC(n3nccc3NC(=O)[C@H]3CCOC3)CC2)s1`, the “% Inhibition” value is reported as -5% and the Z score is reported as 0.92. For `O=C(C1CCN(c2ccc(-c3cccs3)nn2)CC1)N1CCCN(Cc2ccccc2Cl)C1`, the “% Inhibition” value was -3% and the Z score was 0.53. In the case of `Cc1nc(CNC(=O)N(C)CC2(c3ccccc3)CC2)no1`, the “% Inhibition” value is reported as -13% and the Z score is reported as 2.45. In the case of `O=C(Nc1ccc2c(c1)OCO2)N1CCCN(Cc2ccc(Cl)cc2)CC1`, the “% Inhibition” value is reported as -5% and the Z score is reported as 0.55. For `CN=C(NCC1(c2cccc(F)c2)CC1)N(C)Cc1cnn(C)c1`, the “% Inhibition” value was 3% and the Z score was -0.39. `O=C(NCc1ccc(F)cc1F)[C@H]1C[C@@H](c2ccccc2)N2CCC[C@H]12` was tested, and the “% Inhibition” value was 1% and the Z score was -0.21. `CC1c2ccccc2CN1C(=O)C(C)n1nnnc1C(C)(C)C` (stereo unspecified) was tested, and the “% Inhibition” value was 4% and the Z score was -0.59. With `O=C(CN1CCN(S(=O)(=O)c2ccc(F)cc2)CC1)Nc1ccc2c(c1)OCCO2` the “% Inhibition” value was 1% and the Z score was -0.07. With `CC1CCN(c2ccc(NC(=O)N3CCC[C@@H]3CO)cc2)C1` (stereo partly specified) the “% Inhibition” value was -23% and the Z score was 2.11. `COc1ccccc1CCNC(=O)CC[C@@H](C)[C@H]1CC[C@H]2[C@@H]3[C@@H](O)C[C@@H]4C[C@H](O)CC[C@]4(C)[C@H]3CC[C@]12C` was tested, and the “% Inhibition” value was 3% and the Z score was -0.6. `c1ccc2c(c1)CCC2NCC1CNc2ccnn2C1` (stereo unspecified) was tested, and the “% Inhibition” value was 0% and the Z score was -0.1. In the case of `O=C(c1cn2cc(-c3ccc(Cl)cc3)ccc2n1)N1CCC(Cc2ccccc2)CC1`, the “% Inhibition” value is reported as -5% and the Z score is reported as 0.56. In the case of `Cc1nn(C)c2nc(NCCC[C@H]3CCOC3)sc12`, the “% Inhibition” value is reported as -20% and the Z score is reported as 2.03. With `Cc1cc(OC2CN(C(=O)c3ccc(=O)n(C)n3)C2)cc(=O)n1C` the “% Inhibition” value was -13% and the Z score was 1.48. For `CC(C)Cn1ccnc1CNc1ncc(Br)cn1`, the “% Inhibition” value was -9% and the Z score was 1.01. For `COc1ccc(-c2nc(COc3cc(C)c4c(C)nn(-c5ccccc5)c4n3)c(C)o2)c(OC)c1`, the “% Inhibition” value was -8% and the Z score was 0.78. For `O=C(NC1CC1)[C@H]1CCCN(C2CCN(C(=O)Nc3ccccc3)CC2)C1`, the “% Inhibition” value was -11% and the Z score was 1.04. With `O=C(c1ccc(C(F)(F)F)cc1)N1CC[C@H](n2cncn2)C1` the “% Inhibition” value was -4% and the Z score was 0.39. `O=C(c1ccoc1)N1CCC(c2nc(CCC(F)(F)F)no2)CC1` was tested, and the “% Inhibition” value was -7% and the Z score was 0.83. With `CC(C)N(CC(F)F)C(=O)NCc1ccco1` the “% Inhibition” value was -11% and the Z score was 0.96. `O=C(c1cccc(-n2cncn2)n1)N1CC[C@@H]2CCC[C@@H]21` was tested, and the “% Inhibition” value was -7% and the Z score was 0.74. In the case of `O=S(=O)(Nc1cccc(O)c1)N1CCCC1`, the “% Inhibition” value is reported as 13% and the Z score is reported as -1.62. `CN(C)C(=O)NCc1cc2n(n1)CCCN(Cc1cccc3ncccc13)C2` was tested, and the “% Inhibition” value was -11% and the Z score was 1.58. `Cc1cccc(CN2CC[C@H](Oc3cncc(Br)c3)C2)n1` was tested, and the “% Inhibition” value was -7% and the Z score was 1.41. `CCN(C(=O)C1=CCCCCC1)[C@H]1CC(=O)NC1=O` was tested, and the “% Inhibition” value was -10% and the Z score was 1.08. With `CCc1cnc(CNC(=O)N(Cc2cc(F)ccc2F)C2CCCC2)s1` the “% Inhibition” value was 0% and the Z score was 0.05. For `Cn1cccc(C(=O)N2CCCC[C@H](c3ccc(F)cc3)C2)c1=O`, the “% Inhibition” value was -12% and the Z score was 1.89. For `C[C@H](c1noc(Cc2ccc(O)cc2)n1)C1CC1`, the “% Inhibition” value was 1% and the Z score was -0.21. `CCc1cc(=O)c2cc(NS(=O)(=O)C[C@H]3CCCO3)ccc2[nH]1` was tested, and the “% Inhibition” value was -10% and the Z score was 1.91. With `COC(OC)C(=O)N1CCN(Cc2cnc3ccccc3c2)CC1` the “% Inhibition” value was -7% and the Z score was 0.94. With `CC(C)(C)c1cnc(CNC(=O)Nc2ccnn2C2CCCCC2)o1` the “% Inhibition” value was -6% and the Z score was 0.96. `COc1ccc(/C=C/CN2CCCn3nc(CO)cc3C2)cc1` was tested, and the “% Inhibition” value was 4% and the Z score was -0.56. With `Cc1csc(Nc2cccc(NS(=O)(=O)c3ccc(F)c4ncccc34)c2)n1` the “% Inhibition” value was -15% and the Z score was 1.54. `CN1CCN(c2ncccc2CNC(=O)CN2C(=O)NC(=O)C2(C)C)CC1` was tested, and the “% Inhibition” value was 6% and the Z score was -0.74. For `CC(=O)Nc1cc(C)nc(C)c1OC(C)=O`, the “% Inhibition” value was -19% and the Z score was 2.42. With `COc1cccc(CNCc2ccc(F)cc2)c1OC[C@@H](O)CN1CCOCC1` the “% Inhibition” value was -2% and the Z score was 0.42. For `CC(C)Cc1nc(C#N)c(NC[C@@H](c2cccs2)N2CCCCC2)o1`, the “% Inhibition” value was -10% and the Z score was 1.9. In the case of `Cc1nc(-c2cc3c(s2)CCN(C(=O)[C@H](C)n2cccn2)C3)cs1`, the “% Inhibition” value is reported as -7% and the Z score is reported as 1.21. With `Cc1nnc(-c2cc(C(C)C)n(-c3ccc(C(=O)NCC(C)(C)C)cc3)n2)o1` the “% Inhibition” value was -9% and the Z score was 1.27. In the case of `CC1CCC2(CC1)OC[C@@H](C(=O)NCc1ccccc1)N2C(=O)c1ccc(Cl)c(Cl)c1` (stereo partly specified), the “% Inhibition” value is reported as -10% and the Z score is reported as 1.12. With `O=C(Nc1ccccc1Br)[C@H]1CCCN(c2nc3cccnc3s2)C1` the “% Inhibition” value was -19% and the Z score was 1.69. `COc1ccc(C)cc1NC(=O)c1nn(-c2ccccc2)c2ccccc2c1=O` was tested, and the “% Inhibition” value was 26% and the Z score was -2.53. `O=C(CCc1nc2ccccc2c(=O)[nH]1)NC1CCCC1` was tested, and the “% Inhibition” value was -1% and the Z score was 0.11.
